Laboratory results as given in PubChem BioAssay AID1345083 (National Center for Advancing Translational Sciences (NCATS), 2018).
Out of some 94,000 compounds screened, about 6,200 (6.6%) were called active. The shares of active, inactive and inconclusive entries below differ from those in the screen. The call rests on the fitted dose curve; in most records, active means well fitted inhibition curve with a large enough effect; inconclusive means small, poorly fitted or top-dose-only effect; inactive means flat fitted curve, though single readings scatter. Potencies beside an inconclusive call are fits to weak or partial responses and may not hold up.

Experiment: Cytotoxic Profiling in HEK 293 Cell Line of Diverse Libraries Using Quantitative High-Throughput Screening; further: nearly all actives have a fitted effect of over 60% in size
Details: HEK 293 viability, ATP luminescence (CellTiter-Glo), 48-72 h; series mostly up to 115 µM
How it was run: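 Cells seeded first (HEK 293, 250 cells/well), then compound added by pintool. Incubation ran 48 or 72 hr at 37 degree Celsius. CellTiter-Glo was added and luminescence imaged after 10 min at room temperature.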
Potency means the concentration at half of the fitted maximal effect; tags describe the fitted curve by direction and shape.

| SMILES | Potency |
| --- | --- |
| CS(=O)(=O)N1CCC(OC2CCN(C(=O)Nc3ccc(F)cc3)CC2)CC1 | inactive |
| CC(C)NC(=O)c1ccccc1OCC1CCCN(Cc2cccnc2)C1 (centres undefined) | inconclusive: 79.4 µM [inhibitor, partial curve, poor fit] |
| CN(CC1(C)CCOCC1)C(=O)c1cccs1 | inactive |
| Cc1cccc(-c2cccc(CN3CCC(NC(=O)C(C)(C)C)CC3)c2)c1 | active: 44.7 µM |
| CCCCc1cc(C[C@H]2CNCC[C@H]2CC(=O)NCc2ccccc2)no1 | active: 70.8 µM |
| CCc1ccccc1NC(=O)Cn1c(N2CCc3ccccc3C2)nc(C)cc1=O | inconclusive: 31.6 µM [inhibitor, full curve, poor fit] |
| OCC1(CCOc2ccccc2)CCCN(c2ncnc3sccc23)C1 (centres undefined) | inconclusive: 7.94 µM [inhibitor, full curve, poor fit] |
| COc1ccc(-c2cc(C[C@@H]3CC[C@H](O)[C@@H](CNCc4cccc(Cl)c4)O3)no2)cc1 | active: 28.2 µM |
| NC(=O)c1cccc(CN2CCC3(CC2)Cc2ccccc2N(C(=O)C2CCCC2)C3)c1 | inconclusive: 50.1 µM [inhibitor, partial curve, poor fit] |
| O=C(Cc1c[nH]c2ccccc12)N1CCC(Oc2ccc(-c3noc(C4CC4)n3)cc2)C1 (centres undefined) | inconclusive: 39.8 µM [inhibitor, partial curve, poor fit] |
| Cc1noc([C@@H]2CC(F)(F)CN2C(=O)c2ccoc2C)n1 | inactive |
| Cc1noc2c(NCCCn3ccnc3)cc(-c3cccc(C(F)(F)F)c3)nc12 | inconclusive: 89.1 µM [inhibitor, partial curve, poor fit] |
| COc1ccc(-c2cc(-c3ccc(F)cc3OC)cn3cncc23)cc1 | inconclusive: 8.91 µM [inhibitor, full curve, poor fit] |
| CO[C@@H]1CO[C@H]2[C@@H]1OC[C@@H]2NC(=O)Nc1cccc(C(F)(F)F)c1 | inconclusive: 126 µM [inhibitor, single point] |
| O=C1c2cnc(-c3ccc(F)cc3F)nc2OCCN1Cc1ccc(F)cc1F | inconclusive: 100 µM [inhibitor, partial curve] |
| CC(=O)Nc1ccc(CN2CCn3c(nnc3-c3cccnc3)C2)cc1 | inactive |
| Cc1nn(-c2ccccc2)c2c1C(C)N(C1CN(C(=O)C3CC3)C1)C2=O (centres undefined) | inconclusive: 89.1 µM [inhibitor, single point] |
| CCCCc1ccc(NC(=O)c2ccc3c(c2)N(S(C)(=O)=O)CC3)cc1 | inactive |
| Cc1cnc(CC2CCN(Cc3ccc(F)cc3F)C2)n1CC1CC1 (centres undefined) | inconclusive: 89.1 µM [inhibitor, partial curve, poor fit] |
| O=C(O)CCC(=O)N[C@H]1CCN2C(=O)c3cc(-c4ccc(F)cc4F)ccc3NC(=O)[C@H]12 | inconclusive: 89.1 µM [inhibitor, single point] |
| COC(=O)c1ccc2nc(C[C@@H]3C[C@@H](C(C)C)[C@H](CNCc4ccccc4O)C=C3C)[nH]c2c1 | active: 22.4 µM |
| COc1ccc(CCNc2ncnc3c2CN(C2CCC2)C(=O)N(C)C3)cc1 | inconclusive: 89.1 µM [inhibitor, single point] |
| CCN1CCN(CC(O)COc2cccc(CNCCc3cccc(C)n3)c2)CC1 (centres undefined) | inconclusive: 89.1 µM [inhibitor, single point] |

| SMILES | Potency |
| --- | --- |
| O=C(NCC(F)F)C1CCCCN1Cc1ccc(-c2cccs2)cc1 (centres undefined) | active: 25.1 µM |
| COc1ccc(S(=O)(=O)N2CCC3(CC2)CC(CC(=O)N2CCCC2)CCO3)cc1 (centres undefined) | inconclusive: 50.1 µM [inhibitor, partial curve, poor fit] |
| O=C(c1ccccc1Cl)N1CCN(C(=O)c2nc3cccnc3n(C3CC3)c2=O)CC1 | inactive |
| O=C(NC1CCN(c2cc(-c3ccc(Cl)cc3)[nH]n2)C1)c1ccccc1F (centres undefined) | inconclusive: 44.7 µM [inhibitor, partial curve, poor fit] |
| Cc1nc([C@@H]2CN(C(=O)c3ccc(Br)o3)C[C@H]2C(N)=O)n[nH]1 | inactive |
| CN1c2cc(C(=O)Nc3ccc(F)c(Cl)c3)ccc2C(=O)N2CCCCC21 (centres undefined) | inconclusive: 50.1 µM [inhibitor, partial curve, poor fit] |
| Cc1ccc(S(=O)(=O)Nc2ccc3c(c2)CN(Cc2ccccc2)C(=O)CO3)cc1 | inconclusive: 89.1 µM [inhibitor, single point] |
| C[S+](=O)([O-])c1ccc(-c2nnc3ccc(C(=O)NCc4ccc(F)c(F)c4)cn23)cc1 | inconclusive: 56.2 µM [inhibitor, partial curve, poor fit] |
| COCc1cccc(-c2n[nH]c3c2CC(=O)N(CCOc2ccccc2)C3)c1 | inconclusive: 89.1 µM [inhibitor, partial curve, poor fit] |
| O=C(NCc1cc(F)cc(F)c1)c1ccc(Cn2ccn3nc4c(c3c2=O)CCCC4)cc1 | inconclusive: 35.5 µM [inhibitor, full curve] |
| Cc1cc2cc(-c3c(C)noc3C)nc(N3CCCC3)c2o1 | inconclusive: 100 µM [inhibitor, partial curve, poor fit] |
| COc1ccc(C(=O)N2CCc3cn(C)c4cccc(c34)C2)c(C)c1 | active: 22.4 µM |
| COc1ccc(CNC(=O)C[C@@H]2CCNC[C@@H]2Cc2cc(CSc3ccccc3)on2)cc1 | active: 50.1 µM |
| CC1CCN(C(=O)c2cc3c(s2)CCC(C(=O)O)C3)CC1 (centres undefined) | inactive |
| CCn1ncc(N2CCCC(CC(=O)NCc3ccccc3C)C2)cc1=O (centres undefined) | inconclusive: 79.4 µM [inhibitor, single point] |
| CC(C)C1=NOC2(CCCN(CC3CCCCC3)C2)C1 (centres undefined) | inactive |
| CC(C)(C)CC(=O)Nc1ccc([C@@H](O)[C@H]2COCC(=O)N2Cc2cccnc2)cc1 | inactive |
| COc1ccc(-c2[nH]nc3ncc(C(=O)Nc4ccccc4)nc23)c(C)c1 | inconclusive: 39.8 µM [inhibitor, full curve, poor fit] |
| O=C(NCCc1noc(-c2ccncc2)n1)c1c2c(nc3ccccc13)CCCC2 | inconclusive: 56.2 µM [inhibitor, partial curve, poor fit] |
| O=C(c1ccc(F)cc1)N1CCN(C(=O)c2nc3cccnc3n(Cc3ccccc3)c2=O)CC1 | inactive |
| Cn1c(CN2C[C@H](O)C[C@H]2c2nc(-c3ccc(OC(F)(F)F)cc3)no2)nc2ccccc21 | inconclusive: 50.1 µM [inhibitor, partial curve, poor fit] |
| O=C(c1nc2cccnc2n(Cc2ccccc2)c1=O)N1CCN(c2ncccn2)CC1 | inactive |
| COc1cc(NC(=O)CN2C(=O)C(c3ccccc3)=NC23CCCC3)cc(OC)c1OC | inconclusive: 17.8 µM [inhibitor, full curve] |

| SMILES | Potency |
| --- | --- |
| O=C1NCc2ccccc2CC12CCN(Cc1ccc(Cl)cc1)CC2 | inconclusive: 100 µM [inhibitor, single point] |
| O=C(Cc1ccccc1)NC1CCN(CCn2nc3n(c2=O)CCCC3)C1 (centres undefined) | inactive |
| CNC(=O)c1cc(C2CC2)nc2c1c(C1CCN(C(=O)c3cccc(OC)c3)C1)nn2C (centres undefined) | active: 79.4 µM |
| O=C(NC1CCCc2c1[nH]c1ccccc21)c1ccco1 (centres undefined) | inconclusive: 7.94 µM [inhibitor, full curve, poor fit] |
| COc1ccc(-c2nc(-c3c(C)noc3C)cc3c2cc(C)n3CCN(C)C)cn1 | active: 79.4 µM |
| CSc1ccc(-c2cccc(C(=O)NCCNC(=O)Nc3ccccc3)c2)cc1 | inconclusive: 8.91 µM [inhibitor, full curve, poor fit] |
| O=C1COc2ccc(Nc3cccc(F)c3)nc2CN1CCOc1ccccc1 | active: 89.1 µM |
| O=C(NC1CCc2n[nH]c(=O)n2CC1)c1cncc(Br)c1 (centres undefined) | inactive |
| CN1C(=O)[C@@H]2C[C@@H](CN2Cc2ccc(F)c(F)c2)Oc2ccccc21 | inactive |
| CCc1cc(=O)n(CC(=O)Nc2ccc(N(C)C)cc2)c(-c2ccccc2)n1 | inconclusive: 20 µM [inhibitor, full curve, poor fit] |
| O=C(Cc1ccc(F)cc1)Nc1cc(C2CC2)nn1-c1ccccc1 | inconclusive: 100 µM [inhibitor, partial curve] |
| COc1ccccc1CCC(=O)N1CC(F)(F)C[C@H]1c1nnc(C)o1 | inactive |
| O=C(c1ccccc1)N1CCN(c2nccc(Nc3ccccc3F)n2)CC1 | inconclusive: 50.1 µM [inhibitor, partial curve, poor fit] |
| COCCO[C@H]1C(=O)N(C2CCN(Cc3ccccc3C#N)CC2)[C@H]1c1ccncc1 | inactive |
| Cc1cccc([C@H]2C[C@@H](O)[C@@H](O)[C@@H]2NC(=O)C2CCOCC2)c1 | inactive |
| CC1=C[C@@H](CN2CCN(c3ncccn3)CC2)[C@H](C(C)C)C[C@H]1Cc1nnc(COc2ccc(F)cc2)o1 | active: 25.1 µM |
| CC1(C(=O)NCc2ccccc2)CN(Cc2ccccc2)Cc2ccc(N3CCOCC3)nc21 (centres undefined) | active: 50.1 µM |
| Cn1nc(C2CC2)cc1NC(=O)c1ccc(F)cc1 | inactive |
| O=C(NC[C@H]1Cn2c(-c3ccc(Cl)cc3)cnc2CO1)Nc1ccccc1 | active: 63.1 µM |
| CCCS(=O)(=O)N1CCC(Oc2ccccc2-c2nc(C3CC3)no2)C1 (centres undefined) | inconclusive: 79.4 µM [inhibitor, partial curve, poor fit] |
| CN1C(=O)[C@H]2CN(Cc3ccc(C#N)cc3)C[C@H]2C1=O | inactive |
| Cc1nc(CC2CCN(C(=O)C3CCCC3)CC2)n[nH]1 | inactive |
| Cc1ccc(CN2C(=O)NC3(CCCN(C(=O)c4ccc(F)c(Cl)c4)C3)C2=O)cc1 (centres undefined) | inconclusive: 89.1 µM [inhibitor, single point] |
